In the supplement of paper PMC3334620:
The full ranking holds about 33,000 sequences; the median of “E-score (-0.5 to 0.5)” is about -0.036, and the highest 2% start at about 0.37. Some of the results follow.

These sequences were tested against T1, Yer064c (UniProt P40041) (assay: PBM E-score (8-mer binding enrichment) (E-score (-0.5 to 0.5)); higher = stronger / more preferred TF binding; most listed sequences are background and not binding sites). Settings: protein concentration: 200 nM; construct: GST-full length.
T1 sequence: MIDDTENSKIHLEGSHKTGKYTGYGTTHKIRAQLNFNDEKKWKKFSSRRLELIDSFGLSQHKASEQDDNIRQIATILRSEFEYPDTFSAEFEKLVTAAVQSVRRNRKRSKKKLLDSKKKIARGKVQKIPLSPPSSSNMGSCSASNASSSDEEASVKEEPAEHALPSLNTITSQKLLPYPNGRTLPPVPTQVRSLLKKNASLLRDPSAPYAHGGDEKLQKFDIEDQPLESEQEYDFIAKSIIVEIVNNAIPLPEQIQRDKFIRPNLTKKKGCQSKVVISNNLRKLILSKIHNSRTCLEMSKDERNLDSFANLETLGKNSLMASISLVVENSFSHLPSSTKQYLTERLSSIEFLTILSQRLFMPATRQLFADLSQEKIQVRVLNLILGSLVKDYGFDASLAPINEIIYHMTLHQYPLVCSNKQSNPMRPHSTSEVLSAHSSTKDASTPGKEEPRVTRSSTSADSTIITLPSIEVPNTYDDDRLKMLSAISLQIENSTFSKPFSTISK
In short: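 Masliner-normalised scans of fluorescent anti-GST signal were the basis for scoring. That signal came from GST-tagged yeast transcription factors applied at about 100-200 nM to double-stranded universal all-10-mer Agilent arrays on fresh or once-stripped slides. Each ungapped eight-base word, pooled with its reverse complement, received an E-score from the Universal PBM Analysis Suite.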
AGTCACGA was tested, and the “PBM E-score” value was 0.466.
In the case of CTCTCACA, the “PBM E-score” value is reported as -0.0505.
With CCGGAGGC the “PBM E-score” value was -0.154.
For CGTTACTA, the “PBM E-score” value was 0.0517.
For AAGCGCTC, the “PBM E-score” value was -0.294.
With CTGTGAGA the “PBM E-score” value was 0.166.
In the case of GTGTGCCA, the “PBM E-score” value is reported as -0.226.
In the case of AAGTCAAT, the “PBM E-score” value is reported as 0.305.
For ATTATCCG, the “PBM E-score” value was -0.0102.
With ATTCCTAC the “PBM E-score” value was 0.127.
With AGCGCTAT the “PBM E-score” value was -0.141.
With AAGACCGA the “PBM E-score” value was -0.15.
GCAGTTCA was tested, and the “PBM E-score” value was -0.0587.
In the case of CGTTCTGA, the “PBM E-score” value is reported as -0.00219.
CCGGGTTA was tested, and the “PBM E-score” value was -0.141.
For CAGGTTTC, the “PBM E-score” value was 0.109.
With AGAACTCG the “PBM E-score” value was -0.0243.
For ACATACCA, the “PBM E-score” value was -0.0959.
For CTCATTCC, the “PBM E-score” value was 0.17.
With GGTCGGGA the “PBM E-score” value was -0.115.
ACGTAACT was tested, and the “PBM E-score” value was -0.119.
In the case of CCGGATCG, the “PBM E-score” value is reported as -0.173.
With AACGTTAT the “PBM E-score” value was -0.201.
In the case of ATTGCGGG, the “PBM E-score” value is reported as -0.102.
GATGACGC was tested, and the “PBM E-score” value was -0.197.
In the case of AGTATTTG, the “PBM E-score” value is reported as 0.0413.
With AGAGCAAC the “PBM E-score” value was -0.198.
For GAAAGACA, the “PBM E-score” value was -0.0825.
CGCATGGC was tested, and the “PBM E-score” value was -0.0395.
For CGGCAATC, the “PBM E-score” value was 0.0483.
In the case of TAGTAACA, the “PBM E-score” value is reported as 0.147.
With AAATTGTA the “PBM E-score” value was 0.165.
GCAGCTTA was tested, and the “PBM E-score” value was -0.189.
In the case of ACGAGTTA, the “PBM E-score” value is reported as 0.123.
In the case of CCCCAAGA, the “PBM E-score” value is reported as -0.112.
With AATGCCTC the “PBM E-score” value was -0.232.
With CAGCCGTC the “PBM E-score” value was -0.0182.
ATTGTATG was tested, and the “PBM E-score” value was 0.0759.
For CGCTATTC, the “PBM E-score” value was -0.0435.
With ATACCGCC the “PBM E-score” value was -0.133.
ATCTGGCC was tested, and the “PBM E-score” value was -0.262.
With GTCTTGTA the “PBM E-score” value was 0.0119.
For TAATTGCA, the “PBM E-score” value was -0.0278.
With GTCTAGAC the “PBM E-score” value was -0.0147.
In the case of CCTCCCAC, the “PBM E-score” value is reported as -0.165.
TAATGGTA was tested, and the “PBM E-score” value was -0.0906.
For GTAAGTAC, the “PBM E-score” value was 0.0516.
For CTTATGCA, the “PBM E-score” value was 0.0241.
AGATTACC was tested, and the “PBM E-score” value was 0.239.
ACCAAATC was tested, and the “PBM E-score” value was 0.0245.
With AGGTTCTC the “PBM E-score” value was -0.184.
For CTTCGGCA, the “PBM E-score” value was 0.0471.
With GCCTGCTA the “PBM E-score” value was -0.258.
For CCACCCAC, the “PBM E-score” value was -0.183.
AGTGAGGC was tested, and the “PBM E-score” value was -0.165.
With AGCACGAA the “PBM E-score” value was 0.11.
For GACATATA, the “PBM E-score” value was -0.0355.
With TCAAACGA the “PBM E-score” value was 0.229.
In the case of CACGGACA, the “PBM E-score” value is reported as -0.24.
For TACTGCGA, the “PBM E-score” value was 0.0149.
CATTTTAC was tested, and the “PBM E-score” value was 0.121.
With ATTCATTC the “PBM E-score” value was 0.122.
In the case of AGGCCCCT, the “PBM E-score” value is reported as -0.378.
With AGCCATAA the “PBM E-score” value was 0.186.
With AGACATCC the “PBM E-score” value was 0.189.
GAGACTTA was tested, and the “PBM E-score” value was 0.24.
In the case of AAGCGTAA, the “PBM E-score” value is reported as -0.0511.
In the case of CTCCATGA, the “PBM E-score” value is reported as 0.134.
In the case of CAATTGAA, the “PBM E-score” value is reported as -0.198.
GTTATGAA was tested, and the “PBM E-score” value was -0.13.
With ACGTGCAG the “PBM E-score” value was -0.194.
CCGTTGCA was tested, and the “PBM E-score” value was -0.0729.
For ACCTACCG, the “PBM E-score” value was -0.192.
For CGCTGAAG, the “PBM E-score” value was 0.00255.
For AACTCCTT, the “PBM E-score” value was -0.00991.
In the case of CTGGATGC, the “PBM E-score” value is reported as -0.189.
With ATCAATTG the “PBM E-score” value was 0.121.
GCCACCCA was tested, and the “PBM E-score” value was -0.051.
For CTCTTTGA, the “PBM E-score” value was 0.0535.
ACCTCGCG was tested, and the “PBM E-score” value was 0.00016.
In the case of ATGAAGGA, the “PBM E-score” value is reported as 0.0837.
In the case of AAGAATCG, the “PBM E-score” value is reported as 0.0843.
With GACAACGC the “PBM E-score” value was -0.208.
With CCTGATGA the “PBM E-score” value was 0.104.
With AGCGTCAG the “PBM E-score” value was -0.0539.
ACTTCGTA was tested, and the “PBM E-score” value was 0.00344.
ACTTACCC was tested, and the “PBM E-score” value was 0.201.
With TAAGCCGA the “PBM E-score” value was 0.0556.
With AAGTGAGC the “PBM E-score” value was 0.0966.
In the case of ACGACCTG, the “PBM E-score” value is reported as 0.0259.
CCCACACA was tested, and the “PBM E-score” value was -0.217.
For GGGGATGA, the “PBM E-score” value was 0.0364.
For CAAACAAC, the “PBM E-score” value was 0.121.
For ATAAACCC, the “PBM E-score” value was 0.151.
ACTTCTGA was tested, and the “PBM E-score” value was 0.191.
For GTAAGCTA, the “PBM E-score” value was -0.0372.
ACTACCTC was tested, and the “PBM E-score” value was 0.102.
In the case of CACAAAAA, the “PBM E-score” value is reported as 0.102.
With ATATGAAG the “PBM E-score” value was -0.0157.
CACTAGCC was tested, and the “PBM E-score” value was 0.082.
With ATGTGCAA the “PBM E-score” value was -0.01.
In the case of CATACCAG, the “PBM E-score” value is reported as 0.0548.
With GCTGGTTA the “PBM E-score” value was 0.0367.
With ATGTCGCC the “PBM E-score” value was -0.162.
AAAGTTAG was tested, and the “PBM E-score” value was 0.173.
TAAGTAAA was tested, and the “PBM E-score” value was 0.177.
For AGGAAATG, the “PBM E-score” value was -0.0289.
In the case of AACAGCTC, the “PBM E-score” value is reported as -0.0521.
In the case of GCGCCCCA, the “PBM E-score” value is reported as -0.229.
In the case of AGCAGGTG, the “PBM E-score” value is reported as -0.22.
ACGATTAT was tested, and the “PBM E-score” value was 0.103.
With AACCGCCT the “PBM E-score” value was 0.082.
In the case of ACAGTTTG, the “PBM E-score” value is reported as -0.275.
CAGTTGCG was tested, and the “PBM E-score” value was 0.0733.
For AAGCTAAA, the “PBM E-score” value was -0.0363.
In the case of AGCGGGCA, the “PBM E-score” value is reported as -0.02.
With ATTTTGAG the “PBM E-score” value was 0.243.
For CGGTCACC, the “PBM E-score” value was -0.0952.
In the case of CAAGCCAG, the “PBM E-score” value is reported as -0.139.
For AGCCTATC, the “PBM E-score” value was -0.028.
With CAAATGGA the “PBM E-score” value was 0.0747.
In the case of ACTGTACG, the “PBM E-score” value is reported as 0.00106.
For ATAACGTG, the “PBM E-score” value was -0.112.
ACACTGGT was tested, and the “PBM E-score” value was -0.098.
AATCCACC was tested, and the “PBM E-score” value was 0.0457.
CGAGCCAG was tested, and the “PBM E-score” value was 0.115.
With CCGTACAA the “PBM E-score” value was 0.0328.
With CGTGCTCC the “PBM E-score” value was -0.197.
In the case of GCTCCATA, the “PBM E-score” value is reported as -0.235.
ACCCCGGG was tested, and the “PBM E-score” value was -0.152.
With GGGAGTCA the “PBM E-score” value was 0.477.
For ATTATCGG, the “PBM E-score” value was 0.032.
In the case of GACAGAAC, the “PBM E-score” value is reported as -0.091.
With ACCCCATG the “PBM E-score” value was -0.151.
With ATAACCAT the “PBM E-score” value was 0.136.
With CTGCAAGA the “PBM E-score” value was 0.0764.
For CAAAGAAA, the “PBM E-score” value was 0.153.
TTCCGGAA was tested, and the “PBM E-score” value was -0.124.
With GACTCTCC the “PBM E-score” value was 0.411.
In the case of AAATCCGT, the “PBM E-score” value is reported as -0.139.
GACTGACA was tested, and the “PBM E-score” value was 0.298.
With AAGCTACT the “PBM E-score” value was -0.0193.
AGAGTCCA was tested, and the “PBM E-score” value was 0.262.
In the case of ATTCGGTG, the “PBM E-score” value is reported as 0.0151.
In the case of ACCTTGCG, the “PBM E-score” value is reported as -0.129.
With CTACCGGC the “PBM E-score” value was -0.115.
In the case of CAATGAGC, the “PBM E-score” value is reported as -0.113.
AAGTCATT was tested, and the “PBM E-score” value was 0.454.
For AGAGGTAG, the “PBM E-score” value was -0.265.
In the case of TATAAAAA, the “PBM E-score” value is reported as 0.202.
In the case of AGTCGCCC, the “PBM E-score” value is reported as 0.403.
In the case of ACCGCTAC, the “PBM E-score” value is reported as -0.142.
For CGAGCCCA, the “PBM E-score” value was 0.0412.
In the case of CGGCGTCC, the “PBM E-score” value is reported as -0.164.
GTAAAACA was tested, and the “PBM E-score” value was -0.0301.
With AGTAGTTA the “PBM E-score” value was 0.112.
With CTCGAGAA the “PBM E-score” value was 0.106.
In the case of CGCTATGA, the “PBM E-score” value is reported as 0.181.
For ATGCTAGG, the “PBM E-score” value was -0.18.
In the case of AGTCGGAT, the “PBM E-score” value is reported as 0.282.
For CGGCATCA, the “PBM E-score” value was -0.242.
GCTGGTAA was tested, and the “PBM E-score” value was 0.106.
With ATAAGGAT the “PBM E-score” value was -0.0841.
With CGTAATGA the “PBM E-score” value was 0.0697.
In the case of CTTGAAGA, the “PBM E-score” value is reported as 0.135.
In the case of ACAGCTTA, the “PBM E-score” value is reported as 0.0266.
With ACTATACA the “PBM E-score” value was 0.0522.
For TAATATGA, the “PBM E-score” value was 0.209.
With CGAGGGTA the “PBM E-score” value was -0.154.
With TGATCCAA the “PBM E-score” value was 0.0557.
For AAGTGGCC, the “PBM E-score” value was -0.33.
For ATTGCGTA, the “PBM E-score” value was 0.102.
